Results on 34 variants are retold here after the RNAGym collection of RNA variant scans (doi:10.1093/nar/gkz1192).

Read counts are not given, so values of variants with three or more changes are uncertain.

The labels stand for the following.
B1: CPEB3 Ribozyme (parent)
chain: UAACAGGGGGCCACAGCAGAAGCGUUCACGUCGCAGCCCCUGUCAGAUUCUGGUGAAUCUGCGAAUUCUGCUGUAUAUCUC

This data set covers variants of B1. Kind of data set: self-cleavage, relative activity (ratio to wild type); higher = more cleavage; in vitro, sequencing. An outline of the steps:
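Relative activity compares each variant's cleaved/total read fraction with that of the unmutated ribozyme. To get these fractions, barcoded CPEB3 ribozyme libraries from rounds of error-prone PCR were transcribed with T7 RNA polymerase for 5 hours at 37°C and then given 15 min of DNase I treatment before EDTA was added. The RNAs were reverse transcribed with template switching and sequenced on Illumina, and DNA sequencing linked barcodes to variants. A minimum of 5 reads applied, and three batches were averaged.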
With UAACUGGGGGCCACAGCAGAAGCGUUCACGUCGCAGCCCCUGUCAGACUCUGGUGAAUCUGCGUAUUCUGCUGUAUAUCUC [A5U U48C A64U], the self-cleavage worked out at 0.13.

In the case of UAACAAGGGGCCGCAGCAGAAGCGUCCUCGUCGCAGCCCCUGUCAGAUUCUGGUGAAUCUGCGAAUUCUGCCGUAUAUCUC [G6A A13G U26C A28U U72C], the self-cleavage was determined as 0.06.

Regarding UAACAAGGGGCCCCAGCAGGAGCGCUCACGUCGCGGUCCCUGCCAGAUUCUGGUGAAUCUGCGAAUUCUGCUGUAUAUCUC [G6A A13C A20G U25C A35G C37U U43C], the self-cleavage was found to be 0.07.

Regarding UAACAAGGGGCCGCAGCAGAAGCGUUCACGUCGCAGCCCCUGUCAGAUUCUGGUGAGUCUGCGAAUUCUGCUGUAUAUCUC [G6A A13G A57G], the self-cleavage is 0.17.

Regarding UAACAAGGGGCCACGGCAGAAGCGUUCACGCCGCAGCCCCUGUCAGAUCCUGGUGAAUCUGCGAAUUCUGCUGUAUAUCUC [G6A A15G U31C U49C], the self-cleavage is 0.23.

As for UAACUGGGGGCCACAGCAGAAGCGUCCACGUCGCAGCCCCUGUCAGAUUCUGGUGAAUCUCCGAAUUCUGCUGUUUAUCUC [A5U U26C G61C A75U], the self-cleavage came to 0.46.

Consider UAACUGGGGGCCACAGCAGAAGCGUUCACGUCGCAGCCCCUGUCAGAUCCUGGAGAAUCGGCGAAUUCUGCUGUAUAUCUC [A5U U49C U54A U60G], for which the self-cleavage is 0.14.

With UAACUGGGGGCCACAGCAGAAGCGUCCACGUCGCAGCCCCUGUCAGAUUCUGGUGAAUCUGCGUAUUCUGCUGUAUAUCUC [A5U U26C A64U], the self-cleavage was determined as 0.34.

For UAACAAGGGGCCACGGCAGAAGCGUUCACGUUGCAGCCCCUGUCAGAUUCUGAUGAAUCUGCGAAUUCUGCUGUAUCUCUC [G6A A15G C32U G53A A77C], the self-cleavage worked out at 0.07.

As to UAACUGGGGGCCACAGCAGAAGCGUUCACGCCGCAGCCCCCGUCAGAUUCUGGUGAGUCUGCGAAUUCUGCUGUAUAUCUC [A5U U31C U41C A57G], the self-cleavage is 0.78.

For the variant UAACAAGGGGCCCCAGCAGAAGCGUUCACGUCGCAGCCCCAGUCAGAUUCUGGUGGAUCUGCGAAUUCUGCUGUAUAUCUC [G6A A13C U41A A56G], the self-cleavage came to 0.11.

As to UAACUGGGGGCCACAGCAGAAGCGUUCACGUCGCAGCCCCUGUCAGAUUCCGGUGAAUCCGCGAAUUCUGCUGUAUAUCAC [A5U U51C U60C U80A], the self-cleavage came to 0.53.

With UAACUGGGGGCCACAGCAGAAGCGUUCACGACGCAGCCCCUGUCAGAUUCUGGUGAAUCCGCGAAAUCUGCUGUAUAUCUC [A5U U31A U60C U66A], the self-cleavage worked out at 0.26.

Take UAACUGGGGGCCACAGCAGAAGCGUCCACGUCGCAGCCCCUGUCAGAUUCUGGUGAAUCUGCGUAUUCUGCUGUAUACCUC [A5U U26C A64U U78C]: the self-cleavage is 0.1.

For UAACUGGGGGCCACAGCAGAAGCGUUCACGUCGCAGCCCCUGUCAGAUUCUGGUGAAUCUGCGAAUUCGGCUGUAUAUCCC [A5U U69G U80C], the self-cleavage worked out at 0.82.

Turning to UAACUGGGGGCCACAGCAGAAGCGUUCACGUCGCAGCCCCGGUCAGAUUCUGGUGAGUCUGCGAAUUCUGCUGUAUAUCCC [A5U U41G A57G U80C], the self-cleavage amounted to 0.46.

Regarding UAACAAGGGGCCACUGCAGAAGCGUUCUCGUCGCAGCCCCUGUCAGAUUCUGGUGAAUCUGCGAAUCCUGCUGUUUAUCUC [G6A A15U A28U U67C A75U], the self-cleavage came to 0.13.

Consider UAACUGGGGGCCACAGCAGAAGCGUCCACGUCGCAGCCCCUGACAGAUCCUGGUGAAUCUGCGAAUUCUGCCGCAUGUCUC [A5U U26C U43A U49C U72C U74C A77G], for which the self-cleavage was found to be 0.18.

For the variant UAACAAGGGGCCGCAGCAGGAGCGUUCACGUCGCAGCCCCUGUCAGAUUCUGGUGAAUCUGCGAAUUCUGCCGUAUAUCUC [G6A A13G A20G U72C], the self-cleavage turned out to be 0.11.

Consider UAACUGGGGGCCACAGCAGAAGCGUUCACGUCGCAGCCCCUGUCAGAUUCCGGUGAAUCUGCAAAUUCUGCUGCAUAUCUC [A5U U51C G63A U74C], for which the self-cleavage came to 1.17.

As for UAACUGGGGGCCACAGCAGAAGCGUUCACGUCGCAGCCCCUGCCAGAUUCUGGUGAAUCUGCGUAUACUGCUGUAUAUCUC [A5U U43C A64U U67A], the self-cleavage amounted to 0.17.

As to UAACUGGGGGCCACAGCAGAAGCGUCCACGUCGCAGCCCCUGUCAGGUUCUGGCGAAUCUGCGAAUUCUGCUGUAUAUCUC [A5U U26C A47G U54C], the self-cleavage stood at 0.63.

In the case of UAACUGGGGGCCACAGCAGAAGCGUUCACGUCGCAGCCCCUGCCAGAGUCUGGUGAAUCUGCGAAUUCCGCUGUAUAUCCC [A5U U43C U48G U69C U80C], the self-cleavage is 0.27.

Turning to UAACAAGGGGCCACGGCAGAAGCGUUCACGUCGCAGCCCCUGUCAGAUUCUGGUGGAUCUGCGAAUUCCGCCGUAUAUCUC [G6A A15G A56G U69C U72C], the self-cleavage was 0.16.

Consider UAACUGGGGGCCACAGCAGAAGCGUUCACGUCGCAGCCCCAGUCAGGUUCUGGUGAAUCUGCGAAUUCUGCUGUAUAUCUC [A5U U41A A47G], for which the self-cleavage stood at 0.25.

With UAACUGGGGGCCACAGCAGAAGCGUCCACGUCGCAGCCCCUGUCAGAUUCUGGUGAAUCAGCGAAUUCUGCUGUAUAUCUC [A5U U26C U60A], the self-cleavage is 0.59.

For the variant UAACAAGGGGCCUCAGCAGACGCGUUCACGUCGCAGCCCCUGUCAGAUUCUGGUGAAUCUGCGAAUUCUGCUGUAUAUCUC [G6A A13U A21C], the self-cleavage turned out to be 0.08.

On to UAACAAGGGGCCUCAGCAGAAGCGUUCACGUCGCAGCCCCUGUCAGAUUCUGGCGAAUCUGCGAAUUCUGCUGUAUAUCUC [G6A A13U U54C], for which the self-cleavage was found to be 0.44.

Turning to UAACAAGGGGCCUCAGCAGAAGCGUUCACGUCGCAGCCCCUGUCAGAUUCUGGUGAAUCUGCGAGUUCUGCUGUAUAUCUC [G6A A13U A65G], the self-cleavage was determined as 0.13.

In the case of UAACAAGGGGCCACUGCGGAAGCGUUCACGUCGCAGCCCCUGUCAGAUUCUGGUGAAUCCGCGAAUUCUGCUGUAUAUCUC [G6A A15U A18G U60C], the self-cleavage came to 0.16.

As for UAACAAGGGGCCUCAGCAGAAGCGUUCACGACGCAGCCCCUGUCCGAUUCUGGUGAGUCUGCGAAUUCCGCUGUAUAUCAC [G6A A13U U31A A45C A57G U69C U80A], the self-cleavage came out at 0.06.

As to UAACAAGGGGCCACGGCAGAAGCGCACACGUCGCAGCCCCUGUCAGAUUCUGGUGAAUCUGCGAAUUCUGCUGUAUAUCUC [G6A A15G U25C U26A], the self-cleavage turned out to be 0.37.

Take UAACUGGGGGCCACAGCAGAAGCGUUCACGUCGCAGCCCCAGUCAGACUUUGGUGAAUCUGCGAAUUCUGCCGUAUAUCUC [A5U U41A U48C C50U U72C]: the self-cleavage turned out to be 0.11.

With UAACUGGGGGCCACAGCAGAAGCGUUCACGUCGCAGCCCCUGUCAGAUUCUGGUGAAUCCGCGAAGUCUGCAGUAUAUCUC [A5U U60C U66G U72A], the self-cleavage is 0.33.
